This is one part of the list.
Tested on: T1, Caupolican (Caup) homeodomain DNA-binding domain
T1 sequence: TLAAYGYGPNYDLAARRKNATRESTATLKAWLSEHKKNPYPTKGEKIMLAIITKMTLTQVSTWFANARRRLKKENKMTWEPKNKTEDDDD
Assay: PBM E-score (8-mer, recovered from the published 9-mer minima) (E-score (dimensionless, -0.5 to 0.5)); Drosophila protein; higher = stronger relative binding preference, active = 0.31 or more
Method in brief: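 Caup's homeodomain DNA-binding domain (residues 214-303) was produced by in vitro transcription and translation and applied at 100 nM to custom-designed protein binding microarrays. Each value is an enrichment score giving relative binding preference for a short DNA word; higher means stronger. Published 9-mer scores were the minimum of their two constituent 8-mer scores, and the 8-mer values were recovered from those minima. A cutoff of 0.31 marks candidate binding sequences.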

| Sequence | PBM E-score |
| --- | --- |
| ATAGTGTC | inactive: 0.115 |
| CGGTGAGC | inactive: -0.234 |
| CGCTTCGC | inactive: -0.149 |
| AAGTTCAC | inactive: 0.0144 |
| CAACTCCC | inactive: -0.0912 |
| CCGAGAAG | inactive: -0.16 |
| CCGACAAA | inactive: 0.0824 |
| AGTTCACG | inactive: 0.0166 |
| CCTGGCGC | inactive: -0.254 |
| CACTTTAA | inactive: 0.0756 |
| CGTGTACA | active: ≥ 0.441 |
| ATGGCGTG | inactive: 0.0269 |
| AGATTCGC | inactive: -0.0347 |
| ATACCACG | inactive: 0.0961 |
| CACTGCAG | inactive: -0.0804 |
| CTAATTTA | inactive: 0.0888 |
| CCTAGACG | inactive: -0.165 |
| GAACCTTC | inactive: -0.139 |
| GAAAGCGC | inactive: -0.134 |
| TTCCTCAA | inactive: -0.0375 |
| ACAGCTGG | inactive: -0.0257 |
| CGAAGCAG | inactive: -0.0647 |
| AACCAGTG | inactive: 0.0523 |
| ACCAAAGT | inactive: -0.0316 |

| Sequence | PBM E-score |
| --- | --- |
| GTAAAAGA | inactive: 0.0871 |
| ACAGGCCG | inactive: -0.0542 |
| TGGTGGAA | inactive: -0.0504 |
| AACACTCA | inactive: 0.158 |
| AGGAGCCA | inactive: -0.106 |
| GCAGTGTA | inactive: 0.12 |
| GAGTACTC | inactive: 0.00459 |
| AAGGACAT | inactive: 0.284 |
| GCTGCCAC | inactive: -0.148 |
| AGTCTCCG | inactive: -0.0398 |
| ACTGACGA | ≥ 0.0373 |
| AGATACTC | inactive: 0.0204 |
| TCGGTAAA | ≥ 0.109 |
| CCTGCCGC | inactive: -0.283 |
| GATTGTGC | inactive: -0.0317 |
| ACATCGCG | inactive: 0.149 |
| TAAGTTAA | inactive: 0.142 |
| CGTCAACG | inactive: -0.078 |
| ACCAGCTC | inactive: 0.0255 |
| CCTGGATA | inactive: -0.119 |
| ATGCCCGG | inactive: -0.145 |
| AAAATCCT | inactive: -0.0218 |
| GTATGCAC | inactive: 0.0836 |
| CACTTTTC | inactive: -0.00991 |

| Sequence | PBM E-score |
| --- | --- |
| GATCGGCC | inactive: -0.222 |
| ATCCTTTG | inactive: 0.0198 |
| CCGCCGCG | inactive: -0.249 |
| ACCTTTTA | inactive: -0.0251 |
| AATTTTAC | inactive: 0.142 |
| ACCACGGG | inactive: -0.133 |
| CCAAAAAG | inactive: -0.00726 |
| GTGTTATA | active: 0.334 |
| ATAATCGC | inactive: 0.11 |
| GGAGGCTA | inactive: -0.223 |
| CCCAAGGC | inactive: -0.189 |
| GTTGGGTA | inactive: 0.0633 |
| ACCGGTTA | inactive: -0.00609 |
| CCCGCCGA | inactive: -0.242 |
| ACATTAAG | inactive: 0.28 |
| AGAAACAA | inactive: 0.203 |
| CTTGCAAA | inactive: -0.00122 |
| GAATTGTA | inactive: 0.241 |
| CATAACCC | inactive: 0.0135 |
| AACCACGA | inactive: 0.0837 |
| CAGATGCA | inactive: 0.00208 |
| CGCGGCTC | inactive: -0.223 |
| CCGTTCGA | inactive: -0.059 |
| CTGCAGAA | inactive: -0.0668 |

| Sequence | PBM E-score |
| --- | --- |
| GATTATGA | inactive: 0.191 |
| CAAGTTCA | inactive: 0.0645 |
| GCTTCGGA | inactive: -0.0465 |
| CATTTAGG | inactive: -0.0704 |
| AGCTGGTG | inactive: -0.0997 |
| CCTTAAAG | inactive: -0.0849 |
| CCGTGGCG | inactive: -0.206 |
| ATACAGAA | inactive: 0.202 |
| CATGGCGG | inactive: -0.179 |
| CTCGGAAA | inactive: -0.0353 |
| CTTGCAGA | inactive: -0.0761 |
| GGATGTTA | inactive: 0.204 |
| ACGCCGTA | inactive: -0.00892 |
| ACAACACT | active: 0.326 |
| CCAAATAC | inactive: -0.0594 |
| AACATAGC | inactive: 0.283 |
| CACATCCA | inactive: 0.0388 |
| GCATAGGC | inactive: -0.157 |
| CAAGCATA | inactive: 0.132 |
| CTATAATA | inactive: 0.0655 |
| AGGGGTAT | inactive: -0.128 |
| GTCGCGGA | inactive: -0.145 |
| ACGCATGC | inactive: 0.0345 |
| CCAGCGGA | inactive: -0.197 |

| Sequence | PBM E-score |
| --- | --- |
| ACTAAATA | inactive: 0.171 |
| CGATAGCG | inactive: -0.0852 |
| CAACGTAC | inactive: 0.173 |
| AAGGCTTG | inactive: -0.0426 |
| CCCTCTTA | inactive: -0.123 |
| AACACCGT | inactive: 0.172 |
| GACCAGCA | inactive: -0.0341 |
| ACAGCCCT | inactive: -0.0872 |
| GTTATCTA | inactive: 0.0812 |
| CGACATCG | ≥ 0.261 |
| CTCTCACC | inactive: -0.114 |
| ACGGATAT | inactive: 0.107 |
| CCAGGTCC | inactive: -0.266 |
| TATTGACA | active: 0.322 |
| AGGGTTCG | inactive: -0.116 |
| TCCTTGAA | inactive: -0.0418 |
| GATATTCA | inactive: 0.022 |
| AGCGCGAA | inactive: -0.0548 |
| CTGCGGAA | inactive: -0.0915 |
| GCCCCCCC | inactive: -0.362 |
| AATTAGCT | inactive: 0.0666 |
| ACACACTA | inactive: 0.175 |
| AAGGAAAC | inactive: -0.0621 |
| ACCCAGTG | inactive: -0.0472 |

| Sequence | PBM E-score |
| --- | --- |
| GACGGGAC | inactive: -0.223 |
| GAATCCAA | inactive: -0.0124 |
| ATCCAACG | inactive: -0.0238 |
| AATGCATT | ≥ 0.195 |
| AACCATGA | ≥ 0.18 |
| CAGGTTAC | inactive: 0.0705 |
| CAGGATGG | inactive: -0.168 |
| AGGCGAAA | inactive: -0.147 |
| TAGCGATA | inactive: 0.08 |
| CGGAGAGA | inactive: -0.13 |
| GTCGGTTA | inactive: -0.0394 |
| GGGCGAAC | inactive: -0.0696 |
| CGGGCGAA | inactive: -0.218 |
| CACCGGAC | inactive: -0.111 |
| ACATTGGC | inactive: 0.0747 |
| ACCGTCGT | inactive: 0.0301 |
| CATCTTCC | inactive: 0.0482 |
| AAATCATA | inactive: 0.0733 |
| CGCCAGGA | inactive: -0.14 |
| ACGAGCAG | inactive: 0.0663 |
| AGCGACGG | inactive: -0.0948 |
| CTATTTCA | inactive: 0.0861 |
